± gives the standard deviation of the averaged measurements. Some of the results follow.
System: PfAP2-LT AP2 domain (GST-tagged)
Test: gcPBM binding intensity (ln(normalized median fluorescence intensity)); higher = stronger DNA binding
Procedure, shortened: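 Binding intensity is the highest Masliner-normalised natural-log median intensity over replicate spots in either probe orientation. To obtain it, GST-tagged P. falciparum DNA-binding domains made in E. coli were incubated for 1 h on an Agilent 4 × 180k array of primer-extended double-stranded 36-bp intergenic genomic probes plus negative controls. Detection used Alexa488 anti-GST antibody with scanning at 488 nm.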

Going from “TCTAATTACAAAAACATACACACAAAAAAAAAAAAA [CACACA_site3783]” to “AAAAAAAAAAAAAAAGCACACACACCGATGTGTATA [CACACA_site8224]”, the “gcPBM binding intensity (ln)” value rises from 8.99 ± 0.48 to 9.94 ± 0.16.

“TATATATATATACCTTGTACTTACATTCGCATATAA [XGTACX_site2466]” and “ACATAAATATATGACACACACACATATTATATATAT [CACACA_site3065]” are within error of each other in “gcPBM binding intensity (ln)” value: 9.39 ± 0.28 for the first, 9.76 ± 0.23 for the second.

“GTATAATTATGTGCACGTACATATTTTATTATATAT [XGTACX_site8586]” and “CCATTACCATATAAAACACACAAACATACATACATA [CACACA_site5952]” are within error of each other in “gcPBM binding intensity (ln)” value: 9.2 ± 0.39 for the first, 9.14 ± 0.38 for the second.

“TATTTATATTTATACACACACACAAAAAAAAAAAAA [CACACA_site6817]” and “TTGTTTTCTTTTTCTTTTCTTTTTCTTTTTTCTTTT [GTGCAC_negctrl_site629]” are within error of each other in “gcPBM binding intensity (ln)” value: 9.33 ± 0.31 for the first, 8.61 ± 0.68 for the second.

“TATATATATATAAAGACACACATCTATAGAATGTTA [CACACA_site2557]” and “TTTATGACTTGAAAAAGTACACATATATTTATGCAA [XGTACX_site5451]” are within error of each other in “gcPBM binding intensity (ln)” value: 8.79 ± 0.32 for the first, 8.54 ± 0.47 for the second.

Going from “AATATAGAAATAAATATATCACATTTGTGTTTAAAC [XGTACX_negctrl_site68]” to “TACCAAATTTATTCTTGTACATATATATATATATAT [XGTACX_site4832]”, the “gcPBM binding intensity (ln)” value rises from 8.61 ± 0.42 to 9.435 ± 0.064.

Going from “ATATATATTTATAGGTGTACAAAATACTATTTTAGG [XGTACX_site8499]” to “AAAAGGAAAAATATCACACATATATATATATATATA [CACACA_site5586]”, the “gcPBM binding intensity (ln)” value rises from 8.6 ± 0.46 to 9.76 ± 0.45.

“AATAAGTAACAAAATACACACATATAGGTAATTATA [CACACA_site6949]” and “ATTATTATACACAAATGTACATGTGAATTTTTTTTC [XGTACX_site6982]” are within error of each other in “gcPBM binding intensity (ln)” value: 9.29 ± 0.43 for the first, 8.72 ± 0.45 for the second.

First: ATATGTTCCGAAGGTTGTACACACATAGAAATATAC [XGTACX_site8227]
Second: AAAATATATACAATATGTACATATATATATATATAT [XGTACX_site1898]
The “gcPBM binding intensity (ln)” value of the first is lower: 9.22 ± 0.32 for the first, 9.675 ± 0.092 for the second.

“TTACCCATTCCCTTTACATGCAATTTGTATTAATAA [TGCATGCA_site412]” and “GTACGTTAGATATATACACACATACATAATAAAGAA [CACACA_site7327]” are within error of each other in “gcPBM binding intensity (ln)” value: 8.79 ± 0.43 for the first, 9.28 ± 0.5 for the second.

“TTAATTCTACTTATTACACACATATTAAGCAAAAAT [CACACA_site4921]” and “TTGTCATTATTATATTGTACAATAAGTATTAAAGAA [XGTACX_site1205]” are within error of each other in “gcPBM binding intensity (ln)” value: 8.7 ± 0.41 for the first, 8.62 ± 0.38 for the second.

“TATATATATTCTTTGTGTACTCATATAAGGGTAGAA [XGTACX_site8121]” and “AATCAATATTATATATGTACTTATTTTCACTTTTGC [XGTACX_site1775]” are within error of each other in “gcPBM binding intensity (ln)” value: 8.59 ± 0.38 for the first, 8.92 ± 0.4 for the second.

“TTTTTAGAAAAGGTTATAAAAAATTAATTGAAAAAA [GTGCAC_negctrl_site289]” and “AGTTCAGAATTGAATAGTACATAAATATAACAAAAT [XGTACX_site650]” are within error of each other in “gcPBM binding intensity (ln)” value: 8.05 ± 0.47 for the first, 8.97 ± 0.49 for the second.

“AAGCGAATCTATATCACACACAAAAAAATCAGACTA [CACACA_site7072]” and “TATGAACATATATATTGTACAAAATTATAATTTCAA [XGTACX_site6406]” are within error of each other in “gcPBM binding intensity (ln)” value: 9.14 ± 0.38 for the first, 8.62 ± 0.39 for the second.

“AACTGATATTAATTCTGTACCTATACGTTATATGTT [XGTACX_site1003]” and “ACCCAAAATATATTCACACAAAAAATATTAAAAATA [CACACA_site5433]” are within error of each other in “gcPBM binding intensity (ln)” value: 9.06 ± 0.34 for the first, 8.73 ± 0.47 for the second.

“TTGCATCTATTTTTGAGTACACAATGAGAATAATTA [XGTACX_site7171]” and “TTTGAAAAAAAATATTGTACACGTGAATAAAGTATT [XGTACX_site644]” are within error of each other in “gcPBM binding intensity (ln)” value: 8.41 ± 0.26 for the first, 8.74 ± 0.36 for the second.

“AAAAATAAATATACATGTACATAATAATAATATATA [XGTACX_site8359]” and “TATATATATATATATATATATATATATATAATTTGA [XGTACX_negctrl_site3]” are within error of each other in “gcPBM binding intensity (ln)” value: 9.06 ± 0.62 for the first, 9.62 ± 0.16 for the second.

Going from “AAAAAAAAAAGACACACACACACATACACATACATA [CACACA_site7362]” to “TTAAAAAAGTAATTAACACACAATAATGTAATGCAT [CACACA_site4176]”, the “gcPBM binding intensity (ln)” value falls from 9.97 ± 0.071 to 8.89 ± 0.4.

“TTATTATATATGTTCACATAAATACATAAATATATA [GTGCAC_negctrl_site529]” and “TTTATTTATATAATTACACACATATATACACAAATG [CACACA_site8903]” are within error of each other in “gcPBM binding intensity (ln)” value: 8.56 ± 0.33 for the first, 8.96 ± 0.38 for the second.

“TATTTAAATTAATATTGTACATATATTTATAATATA [XGTACX_site6109]” and “AAATATATTATATATGCATGCGCCAAGATTTATATA [TGCATGCA_site770]” are within error of each other in “gcPBM binding intensity (ln)” value: 8.35 ± 0.46 for the first, 8.82 ± 0.3 for the second.

“TAATATATATAACAAGTGCAAAAAAATATAGATATT [GTGCAC_site9625]” and “GAGAACATTGATACACGTACATAAGTTATAAGTATT [XGTACX_site7665]” are within error of each other in “gcPBM binding intensity (ln)” value: 8.93 ± 0.48 for the first, 9.03 ± 0.45 for the second.

“AAGCATCCTACTGATTGTACATATATATATATATAT [XGTACX_site2150]” and “AATAAACAAATAAATAAATAAACAGATAAATAAATC [CACACA_negctrl_site920]” are within error of each other in “gcPBM binding intensity (ln)” value: 9.75 ± 0.35 for the first, 8.98 ± 0.45 for the second.

“TTAGGTTATAAATACACACACAAAAGAAAAAAAAAA [CACACA_site5625]” and TATAAATTTATACCAGTGCATTTTGAAATATATATA are within error of each other in “gcPBM binding intensity (ln)” value: 9.23 ± 0.55 for the first, 8.54 ± 0.48 for the second.

“TGGAACCATAAAAAGTGTACACATATAAAAAATATG [XGTACX_site96]” and “ATAATATGAGTCCCACAAAATAGACCATACGAATAT [CACACA_negctrl_site50]” are the same in “gcPBM binding intensity (ln)” value: 8.95 ± 0.57 for the first, 8.95 ± 0.48 for the second.

“AGCTAAAATATTTTTGCACACGATTTTTTTTTTTTT [CACACA_site1140]” and “TATTTTATTTTCCGAAGTACAAAAGCAAAAAAAAAC [XGTACX_site103]” are within error of each other in “gcPBM binding intensity (ln)” value: 8.91 ± 0.42 for the first, 8.44 ± 0.48 for the second.

“TATATTTATATAATATGTACATATTTTTTAATATTT [XGTACX_site3834]” and “TATATATTTTATATATGTACATATTTATATGTTTCT [XGTACX_site1818]” are within error of each other in “gcPBM binding intensity (ln)” value: 8.62 ± 0.4 for the first, 8.87 ± 0.48 for the second.

“TTTTTTTTTTTTTGAACACACATTATTAACTTTTAT [CACACA_site6281]” and “CGCGAACATACATACACACACATATATATATATGTA [CACACA_site205]” are within error of each other in “gcPBM binding intensity (ln)” value: 8.72 ± 0.46 for the first, 9.53 ± 0.43 for the second.

“AAAAAAAAGTTATATACACACATATAAATATAAATA [CACACA_site6683]” and “CATGTAAAATATTAAAGTACATGATTATATATATAT [XGTACX_site7486]” are within error of each other in “gcPBM binding intensity (ln)” value: 8.92 ± 0.42 for the first, 9.13 ± 0.22 for the second.

For “AAAAATATTAAAAGGCGTACAATACCTGTATGCAAC [XGTACX_site6069]”, the “gcPBM binding intensity (ln)” value was 8.81 ± 0.44.

Reference: the supplement of paper PMC11417369
